These results are taken from patent publication US20250297007A1 (published 2025).

The assay concerns the target T1, TCR Vβ6 (TCRVβ6-5 / TCR Vβ13.1) on human T cells (human).
T1 TCR beta: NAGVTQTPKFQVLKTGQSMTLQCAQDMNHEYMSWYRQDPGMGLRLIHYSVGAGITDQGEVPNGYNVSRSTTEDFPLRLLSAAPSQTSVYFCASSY
The experiment in a line: cell-based or functional assay.

B1: BKM0186 (other)
heavy: QVQLVQSGAEVKKPGSSVKVSCKASGHDFRLTYIHWVRQAPGQGLEWMGRVSAGSGNVKYNEKFKGRVTITADTSTSTAYMELSSLRSEDTAVYYCAVSYYSYDVLDYWGQGTTVTVSSASTKGPSVFPLAPSSKSTSGGTAALGCLVKDYFPEPVTVSWNSGALTSGVHTFPAVLQSSGLYSLSSVVTVPSSSLGTQTYICNVNHKPSNTKVDKRVEPKSCDKTHTCPPCPAPELLGGPSVFLFPPKPKDTLMISRTPEVTCVVVDVSHEDPEVKFNWYVDGVEVHNAKTKPREEQYASTYRVVSVLTVLHQDWLNGKEYKCKVSNKALPAPIEKTISKAKGQPREPQVCTLPPSREEMTKNQVSLSCAVKGFYPSDIAVEWESNGQPENNYKTTPPVLDSDGSFFLVSKLTVDKSRWQQGNVFSCSVMHEALHNHYTQKSLSLSPGK
chain: [about 150 residues not shown]GGGGSGGGGS[human IgG1 Fc with changes not shown]
light: DIQMTQSPSFLSASVGDRVTITCKASQNVADRVVWHQQKPGKAPKALIYSSSHRYKGVPSRFSGSGSGTEFTLTISSLQPEDFATYFCQQFKSYPLTFGQGTKLEIKRTVAAPSVFIFPPSDEQLKSGTASVVCLLNNFYPREAKVQWKVDNALQSGNSQESVTEQDSKDSTYSLSSTLTLSKADYEKHKVYACEVTHQGLSSPVTKSFNRGEC
B1: the “proliferation of Vβ6 T cells as a proportion of the total CD4+ T cell population (human PBMCs, 5 days), EC50” value is 12 nM and the “proliferation of Vβ6 T cells as a proportion of the total CD8+ T cell population (human PBMCs, 5 days), EC50” value was 6 nM.
